These results are taken from paper PMC4336329 (PLoS ONE, 2015).

In all, about 310,000 compounds went through this assay and about 14,000 (4.5%) showed an effect of 50% or more. The effect is printed as a negative number. The list shows a part of the results.
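Also: peak tail current of the secondary pulse compared with the same well before compound.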

Sequence of human ether-à-go-go-related gene (hERG) potassium channel (Q12809 whole entry, looked up): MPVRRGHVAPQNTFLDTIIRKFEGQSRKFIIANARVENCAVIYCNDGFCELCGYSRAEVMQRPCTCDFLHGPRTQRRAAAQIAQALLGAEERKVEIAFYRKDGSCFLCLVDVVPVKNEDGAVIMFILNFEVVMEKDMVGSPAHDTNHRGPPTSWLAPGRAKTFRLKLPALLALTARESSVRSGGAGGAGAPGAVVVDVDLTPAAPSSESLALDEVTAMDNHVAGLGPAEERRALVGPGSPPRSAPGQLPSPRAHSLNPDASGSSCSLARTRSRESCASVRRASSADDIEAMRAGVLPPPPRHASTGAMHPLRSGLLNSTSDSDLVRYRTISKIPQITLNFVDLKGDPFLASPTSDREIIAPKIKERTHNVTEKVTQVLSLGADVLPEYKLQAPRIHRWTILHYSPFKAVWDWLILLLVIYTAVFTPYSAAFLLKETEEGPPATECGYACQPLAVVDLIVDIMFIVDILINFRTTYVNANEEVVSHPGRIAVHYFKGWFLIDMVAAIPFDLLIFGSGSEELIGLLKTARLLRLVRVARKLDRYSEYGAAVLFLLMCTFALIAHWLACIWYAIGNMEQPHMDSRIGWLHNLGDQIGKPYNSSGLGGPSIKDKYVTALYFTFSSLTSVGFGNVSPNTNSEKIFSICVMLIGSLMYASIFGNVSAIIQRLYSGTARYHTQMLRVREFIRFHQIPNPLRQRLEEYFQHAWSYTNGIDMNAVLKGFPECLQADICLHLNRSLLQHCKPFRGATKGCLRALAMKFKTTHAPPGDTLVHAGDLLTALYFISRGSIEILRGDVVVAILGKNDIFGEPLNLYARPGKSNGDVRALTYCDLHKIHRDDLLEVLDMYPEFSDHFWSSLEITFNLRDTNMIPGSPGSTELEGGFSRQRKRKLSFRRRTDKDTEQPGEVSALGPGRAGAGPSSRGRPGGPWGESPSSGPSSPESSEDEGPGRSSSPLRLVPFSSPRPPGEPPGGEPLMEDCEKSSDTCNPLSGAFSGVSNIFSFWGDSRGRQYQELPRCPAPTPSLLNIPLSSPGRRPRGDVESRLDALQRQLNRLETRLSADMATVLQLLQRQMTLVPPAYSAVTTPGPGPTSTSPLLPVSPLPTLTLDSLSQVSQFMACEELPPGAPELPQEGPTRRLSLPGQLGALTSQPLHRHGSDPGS

The experiment has as its target human ether-à-go-go-related gene (hERG) potassium channel (human, UniProt Q12809). Kind of experiment: primary screen, population patch clamp on CHO cells stably expressing hERG.
As for `O=C(CNCCc1ccc(Cl)cc1)Nc1ccc(C(=O)N2CCCCC2)cc1.O=C(O)C(=O)O`, the “hERG current change (%, negative = inhibition) at 10uM” value is reported as -13.4%.
Next, `O=C(NNC(=O)C12CC3CC(CC(Cl)(C3)C1)C2)c1ccncc1`: -6.12%; `Cc1onc(-c2ccccc2)c1C(=O)N1CCN(S(=O)(=O)c2ccccc2Br)CC1`: -1.99%; `CCC(C)NC(=O)CNC(=S)N(CCCN1CCOCC1)Cc1cccs1` (centres unmarked): -14.4%.
As to `O=C(Nc1ccc(Oc2ccccc2)cc1)C1CC1`, the “hERG current change (%, negative = inhibition) at 10uM” value came to 2.07%.
Next, `CCCCn1c(N)c(N(CCC(C)C)C(=O)C(C)N2C(=O)c3ccccc3C2=O)c(=O)[nH]c1=O` (centres unmarked): 8.31%.
Next, `COc1ccc(CNC(=O)C(c2ccncc2)N(C(=O)Cc2cccs2)c2ccc(C)cc2)cc1` (centres unmarked): -15.7%; `Cc1cccc(C)c1OCC(=O)Nc1ccc2c(c1)C(=O)NC2=O`: 6.61%; `O=S(=O)(NCc1ccncc1)c1ccc(S(=O)(=O)NCC2CCCO2)cc1` (centres unmarked): -12.2%.
Next, `O=C1C(=O)N(Cc2cccnc2)C(c2ccccn2)/C1=C(/O)c1ccccc1` (centres unmarked): 5.51%; `O=C(CCN1C(=O)S/C(=C\c2ccccc2)C1=O)NC1CCS(=O)(=O)C1` (centres unmarked): 5.47%; `COc1ccccc1C(CNC(=O)c1ccc(S(=O)(=O)NCc2ccco2)cc1)N(C)C` (centres unmarked): -4.73%.
Take `Cc1cc(OC(=O)C2CC2)c([N+](=O)[O-])c(=O)[nH]1`: the “hERG current change (%, negative = inhibition) at 10uM” value came to 12.7%.
As for `CC(C)C(=O)N1CCN(c2ccc(NC(=S)NC(=O)c3cc4ccccc4o3)cc2)CC1`, the figure is 1.26%; as for `CCNC(=S)NNC(=O)c1cccc(Br)c1`, 15.4%; as for `O=c1cc(-c2ccccc2Cl)oc2c([N+](=O)[O-])c(O)cc(O)c12`, 8.63%.
In the case of `COc1ccc(C(=O)N2CCN(c3ccc([N+](=O)[O-])c(-n4nc(C)cc4C)c3)CC2)cc1`, the “hERG current change (%, negative = inhibition) at 10uM” value is -78.2%.
Regarding `Cc1cccc(NC(=O)CC2SC(=O)N(c3ccccc3)C2=O)c1` (centres unmarked), the “hERG current change (%, negative = inhibition) at 10uM” value was determined as 17.8%.
As for `CCOc1ccc(NS(=O)(=O)c2ccc(C(=O)N3CCN(c4ncccn4)CC3)cc2)cc1`, the figure is -11.4%; as for `CC(CCc1ccc(O)cc1)NC1C2CC3CC(C2)CC1C3` (centres unmarked), -25.6%; as for `S=C(c1ccccc1)N1CCCC1`, 17.7%.
As for `O=C(NCCN1CCOCC1)c1cc2n(n1)C(C(F)(F)F)CC(c1ccc(F)cc1)N2` (centres unmarked), the “hERG current change (%, negative = inhibition) at 10uM” value is on record as 6.47%.
Regarding `O=C(Nc1ccc(F)cc1)Nc1cccc(Br)c1`, the “hERG current change (%, negative = inhibition) at 10uM” value is recorded as 8.42%.
Next, `O=C(Nc1cccnc1)c1ccccc1Cl`: -7.14%.
Next, `CCc1ccc(C(C)NC(=O)Cn2cnc3c(=O)n(C)c(=O)n(C)c32)cc1` (centres unmarked): -17.8%.
As for `COc1ccc(-n2c(CCc3ccccc3)n[nH]c2=S)cc1`, the figure is 14.3%; as for `COCCNC(=O)/C(C#N)=C/c1ccc(-c2ccc(OC)cc2[N+](=O)[O-])o1`, -15%.
Consider `CCOC(=O)c1[nH]c2ccc(Cl)cc2c1NC(=O)c1nonc1C`, for which the “hERG current change (%, negative = inhibition) at 10uM” value is recorded as 10.1%.
On to `N#C/C(=C\c1ccc(C(=O)O)cc1)S(=O)(=O)c1cc(Br)ccc1Br`, for which the “hERG current change (%, negative = inhibition) at 10uM” value is on record as 8.97%.
For the compound `NC(=O)c1ccc(-c2ncc(-c3ccccc3)o2)cc1`, the “hERG current change (%, negative = inhibition) at 10uM” value is on record as -1.24%.
Regarding `Cc1ccc(CCN2CC(C(=O)NCCCN3CCOCC3)CC2=O)cc1` (centres unmarked), the “hERG current change (%, negative = inhibition) at 10uM” value was determined as 22.2%.
Next, `O=c1[nH]c(/C=C2\C=Nc3ccccc32)c(O)n1Cc1ccccc1F`: 10.1%.
As for `Cc1cc(S(=O)(=O)Nc2cccc(C(=O)O)c2)c(C)c(S(=O)(=O)c2ccc(Cl)cc2)c1`, the figure is 18.8%; as for `CSc1ncccc1C(=O)Nc1nc2ccc(Oc3ccccc3)cc2s1`, 12.6%; as for `CCCC(=O)c1c(NC)cc(C)oc1=O`, 11.2%.
Regarding `CCN1CCN(CCC(=O)Nc2ccccc2C)CC1`, the “hERG current change (%, negative = inhibition) at 10uM” value was -17.7%.
As to `CCOc1ccccc1N1CCN(C(=O)c2cccc(-c3ccc(O)cc3)c2)CC1`, the “hERG current change (%, negative = inhibition) at 10uM” value came out at 4.89%.
As for `CCc1ccc(NC(=S)NCc2ccccc2)cc1`, the figure is 3.91%; as for `CCOC(=O)CN1C(=O)NC(C)(c2ccc(OC(F)F)cc2)C1=O` (centres unmarked), -11.5%; as for `Cn1cccc1/C=N/NC(=O)c1cccs1`, 12.1%.
As for `O=C(O)CC(CC(=O)O)c1ccsc1`, the figure is 4.05%; as for `O=C(N/N=C1\SCC(=O)N1CCc1ccccc1)c1cccs1`, -1.71%.
As for `O=C(NCc1cccs1)c1ccc(Cl)s1`, the “hERG current change (%, negative = inhibition) at 10uM” value is reported as -5.32%.
`COc1ccccc1C(=O)NCCC(=O)Nc1cccnc1`: the “hERG current change (%, negative = inhibition) at 10uM” value is reported as 14.7%.
Next, `C[C@H](NC(N)=O)C(=O)Nc1ccc2c(c1)OCO2`: 4.84%; `Cc1ccc(Cn2c(SCC(=O)NCC3CCCO3)nc3ccsc3c2=O)cc1` (centres unmarked): -30.1%; `Cc1ccc(NC(=S)N2CCN(C(=O)c3ccccc3)CC2)c(C)c1`: 7.14%.
For the compound `COc1ccc(CCNCc2cccc(C(F)(F)F)c2)cc1OC.O=C(O)C(=O)O`, the “hERG current change (%, negative = inhibition) at 10uM” value was determined as 0.584%.
On to `C=CCn1c(COc2ccc(F)cc2)nnc1SCC(=O)NC1CCS(=O)(=O)C1` (centres unmarked), for which the “hERG current change (%, negative = inhibition) at 10uM” value is -11.3%.
As for `CCOc1ccccc1CNC(=O)C1CCCN(c2nnc(C)c3c(C)n(-c4ccccc4)nc23)C1` (centres unmarked), the figure is 4.08%.
As for `COc1ccccc1NC(=O)CSc1nnc(-c2ccoc2C)n1CCc1ccccc1`, the figure is -64.8%.
Regarding `CCOc1ncccc1C(=O)Nc1ccc(S(=O)(=O)NC2=NCCCCC2)cc1`, the “hERG current change (%, negative = inhibition) at 10uM” value is 4.47%.
With `COc1ccc(N(CC(=O)N2CC=C(c3ccccc3)CC2)S(=O)(=O)c2c(C)noc2C)cc1`, the “hERG current change (%, negative = inhibition) at 10uM” value was determined as 10.1%.
As for `CC1(NC(=O)Cc2ccc(S(=O)(=O)N3CCOCC3)s2)CCS(=O)(=O)C1` (centres unmarked), the figure is 17.7%; as for `N#Cc1ccc(S(=O)(=O)N2CCc3[nH]c4ccc(F)cc4c3C2)cc1`, 12.1%.
As for `COc1ccc(-c2cc(=O)c3cc(OC)ccc3o2)cc1`, the figure is 11.6%.
